Assay results from PubChem BioAssay AID1030 (National Center for Advancing Translational Sciences (NCATS), 2008).
In all, about 220,000 compounds went through this assay and about 16,000 (7.3%) were called active. Inconclusive results, whose numbers are uncertain, are shown with a selection of clear calls. Calls follow the shape of the dose curve; as a rule, active = well fitted inhibition curve with a large enough effect (not every such curve was filed as active); inconclusive = small, poorly fitted or top-dose-only effect, or another doubt; inactive = no such curve, though single readings can be large or run the other way. Where the call is inconclusive, the potency comes from a doubtful curve fit.

Target: Aldehyde dehydrogenase 1A1 (Homo sapiens) (UniProt P00352)
Assay: qHTS Assay for Inhibitors of Aldehyde Dehydrogenase 1 (ALDH1A1);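 as to activity, negative = inhibition: plate controls were no enzyme wells and a reference inhibitor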
Settings: Purified ALDH1A1, NADH fluorescence, propionaldehyde substrate; series mostly up to 75.3 µM; activity, negative = inhibition: at the top concentration
Potency is read from the fitted curve at half-maximal effect; tags tell the direction and shape of the fitted curve.

Sequence of UniProt P00352 (P00352 whole entry, looked up): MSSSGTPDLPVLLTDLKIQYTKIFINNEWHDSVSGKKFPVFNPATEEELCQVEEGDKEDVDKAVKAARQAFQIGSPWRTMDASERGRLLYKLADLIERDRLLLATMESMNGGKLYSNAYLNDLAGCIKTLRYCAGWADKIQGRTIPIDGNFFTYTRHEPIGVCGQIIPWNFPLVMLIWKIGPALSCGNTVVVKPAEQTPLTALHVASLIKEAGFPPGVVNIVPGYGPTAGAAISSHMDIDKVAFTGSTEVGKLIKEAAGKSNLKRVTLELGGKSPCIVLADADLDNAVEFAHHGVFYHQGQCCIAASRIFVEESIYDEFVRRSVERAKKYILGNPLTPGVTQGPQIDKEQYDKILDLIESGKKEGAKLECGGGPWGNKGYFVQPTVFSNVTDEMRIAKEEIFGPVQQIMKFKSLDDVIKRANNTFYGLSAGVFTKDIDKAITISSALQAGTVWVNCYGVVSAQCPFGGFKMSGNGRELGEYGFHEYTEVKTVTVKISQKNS

Potency, active:
O=C(CN1C(=O)NC2(CCSC2)C1=O)N1CCN(c2ccc(F)cc2)CC1 (centres undefined) 20 µM, CN(C)c1ccc(NC(=O)c2cn(-c3ccccc3)nc2-c2cccs2)cc1 8.91 µM, CCOC(=O)C1CCCN(C2CC(=O)N(c3ccc(C)c(C)c3)C2=O)C1 (centres undefined) 10 µM, Cc1cc(C)nc(N2N=C(C(C)(C)C)CC2=O)n1 6.31 µM, S=c1[nH]c(-c2ccc(Cl)cc2)cs1 3.16 µM, c1ccc(COn2c(-c3ccccc3)nc3c2CCc2nonc2-3)cc1 8.91 µM, CCNC(=O)CN(c1ccc(C)cc1)S(=O)(=O)c1ccc(SC)cc1 11.2 µM, Cc1ccccc1Oc1cc(-n2ncc(Cl)c(Cl)c2=O)ncn1 1.58 µM, CCOc1ccc(NC2=C(OC)C(=O)c3ccccc3C2=O)cc1 3.16 µM, CN(C)S(=O)(=O)c1cccc(C(=O)OCC(=O)c2ccc3c(c2)NC(=O)CO3)c1 22.4 µM, O=C(O)Cc1sc(N/N=C\c2ccccc2)nc1-c1ccccc1 1.12 µM, CC(=O)N1CCC(=NNS(=O)(=O)c2ccc(C)c([N+](=O)[O-])c2)CC1 10 µM, CC(=O)N1N=C(c2ccccc2)CC1c1cn(Cc2ccccc2)c2ccccc12 (centres undefined) 28.2 µM, S=C(Nc1ccccc1)Nn1cnnc1 6.31 µM

Potency, inconclusive:
COc1ccc(OC)c(Nc2ncnc3c2cnn3-c2cccc(C)c2)c1 39.8 µM [inhibitor, single point], Cc1ccc(C2=NN(C(=O)c3cccs3)C(c3ccccc3O)C2)cc1 (centres undefined) 25.1 µM [inhibitor, single point], CCN(CC)C(=O)CSc1nc2ccccc2c(=O)n1CCC(=O)NCCc1ccc(OC)c(OC)c1 7.94 µM [inhibitor, partial curve], CC1=CC(C)(C)Nc2cc(C)c(C)cc21 39.8 µM [inhibitor, single point], O=C(NNc1cc(N2CCOCC2)nc(N2CCOCC2)n1)C12CC3CC(CC(C3)C1)C2 39.8 µM [inhibitor, single point], CCCCCn1c(CN2CCCCC2C)nc2c1c(=O)n(C)c(=O)n2C (centres undefined) 14.1 µM [inhibitor, partial curve], O=C1c2ccccc2NC(c2ccco2)N1NS(=O)(=O)c1ccccc1 (centres undefined) 35.5 µM [inhibitor, single point], Cc1ccc(CSCCNC(=O)CN(c2cc(C)ccc2C)S(C)(=O)=O)cc1 28.2 µM [inhibitor, single point], O=C(c1cccc(F)c1)N1CCC2(CC1)CN(c1ccccc1)C2 25.1 µM [inhibitor, partial curve], CCC(=O)c1ccc(Oc2ccc(C(=O)c3ccc(C)cc3)cc2[N+](=O)[O-])cc1 4.47 µM [inhibitor, full curve], CCOC(=O)c1c(C)[nH]c(C(=O)OCC(=O)N2c3ccccc3CC2C)c1C (centres undefined) 44.7 µM [inhibitor, single point], Cc1nc(-c2cccc(C(F)(F)F)c2)sc1C(=O)O 39.8 µM [inhibitor, single point], CCN(CC)S(=O)(=O)c1cc(OC)c(C)cc1C 4.47 µM [inhibitor, single point], O=c1c2[nH]c3ccc(F)cc3c2nc2n1CCS2 39.8 µM [inhibitor, single point], CC1CCN(c2oc(-c3ccccc3Cl)nc2C#N)CC1 28.2 µM [inhibitor, partial curve], CCCCNC(=O)CCC(=O)Nc1ccc2nc(N3CCOCC3)cc(C)c2c1 31.6 µM [inhibitor, partial curve], COC(=O)CCc1c(C)c(C(=O)c2cc(F)c(F)c(F)c2F)c2ccccn12 39.8 µM [inhibitor, single point], CCN(CCCNC(=O)C1CCN(S(=O)(=O)N2CCOCC2)CC1)c1cccc(C)c1 39.8 µM [inhibitor, single point], O=C(N/N=C/C(Br)=C\c1ccccc1)c1ccc2nc[nH]c2c1 31.6 µM [inhibitor, single point], COC(=O)c1ccc(C(=O)OC)c(NC(=O)C2CC2)c1 39.8 µM [inhibitor, single point], COC(=O)CCN(C1CCCCC1)S(=O)(=O)c1ccc(S(=O)(=O)NC2CCCCC2)cc1 28.2 µM [inhibitor, partial curve], CN(C)C(=O)c1ccc(-c2cc(NCc3cccs3)ncn2)cc1 39.8 µM [inhibitor, single point], N/C(=N\OC(=O)c1cccs1)c1cccc([N+](=O)[O-])c1 28.2 µM [inhibitor, single point], CN1CCC(=NNC(=O)c2ccc(N(Cc3ccccc3Cl)S(C)(=O)=O)cc2)CC1 14.1 µM [inhibitor, partial curve], O=C(CSc1nnnn1-c1ccccc1)Nc1nsc(-c2ccccc2)n1 3.16 µM [inhibitor, single point], Cc1cccc(CCNS(=O)(=O)c2ccc3c(c2)n(C)c(=O)c(=O)n3C)c1 39.8 µM [inhibitor, single point], O=C(Cc1ccc(Cl)cc1)Nc1ccc2oc(-c3ccncc3)nc2c1 28.2 µM [inhibitor, partial curve], COc1ccc(OC)c(C2=NOC(C(=O)Nc3cccnc3)C2)c1 (centres undefined) 22.4 µM [inhibitor, partial curve], COc1ccc(-c2cc(C(F)(F)F)nc(SCC(=O)N(C)Cc3cnn(C)c3C)n2)cc1OC 39.8 µM [inhibitor, single point], CCSc1ncccc1-c1nc2ccccc2[nH]1 39.8 µM [inhibitor, single point], COc1ccc(Cc2nnc(NS(=O)(=O)Cc3ccccc3)s2)cc1 39.8 µM [inhibitor, single point], C=CCOc1c(Br)cc(C2C3=C(CCCC3=O)N(C)C3=C2C(=O)CCC3)cc1OCC 25.1 µM [inhibitor, partial curve], O=C(NCc1n[nH]c(=S)n1-c1ccc(Br)cc1)c1ccc(S(=O)(=O)N2CCCC2)cc1 22.4 µM [inhibitor, partial curve], COC(=O)c1c(N)c(C#N)c2n1CCCCC2 25.1 µM [inhibitor, single point], CCN1CC=C2C(C1)C(c1ccc(Cl)s1)C(C#N)=C(N)C2(C#N)C#N (centres undefined) 39.8 µM [inhibitor, single point], CCCCOc1ccc(Cc2c(Cl)nc(SC)nc2N2CCOCC2)cc1 28.2 µM [inhibitor, single point], O=c1c(-c2ccc(Cl)cc2)cnc2n1CCS2 44.7 µM [inhibitor, single point], O=c1[nH]c(CN(CCc2ccccc2)S(=O)(=O)c2ccc(Cl)cc2)nc2ccccc12 31.6 µM [inhibitor, partial curve], O=C(NCC1CCCO1)c1c(O)c2c([nH]c1=O)CCCC2 (centres undefined) 14.1 µM [inhibitor, partial curve]

activity, negative = inhibition, inactive:
COc1ccc(C(=O)NNC(=O)c2ccccc2[N+](=O)[O-])cc1 8.27%, C/C=C/c1c(F)c(F)c(Oc2ccc(C(=O)O)cc2)c(F)c1F 13.6%, Cc1cc(C)n(C(=O)CNC(=O)/C=C/c2ccccc2)n1 5.85%, O=[N+]([O-])c1ccccc1S(=O)(=O)Oc1ccccc1/C=N/n1cnnc1 -0.527%, Cc1cc(C)c(C#N)c(SCc2ccc(C#N)cc2)n1 18.5%, CCOC(=O)c1cnc(SCc2nc(N)nc(Nc3ccc(C)cc3)n2)nc1N -5.34%, CN1CCN(CCCNC(=O)C2CC(=O)N(C3CCCCC3)C2)CC1 (centres undefined) 0.424%, COCC(=O)N1CCC2(CC1)CN(c1ccccc1)C2 -10.8%, CCC(=O)Nc1cccc(NC(=O)CSc2nnc(-c3ccc(NS(C)(=O)=O)cc3)n2C)c1 5.23%, O=C(O)C1CCCCC1C(=O)Nc1ccc(-c2ccccc2)cc1 (centres undefined) -12.2%, CCC1CC(CSc2ncn[nH]2)OC1=O (centres undefined) 0.518%, Clc1ccccc1CO/N=C1\CCCc2nonc21 -6.93%, COc1ccc(-c2csc3nc(-c4ccccc4)oc(=O)c23)cc1OC -3.44%, O=C(NCCCN1CCN(CCCNC(=O)c2cc([N+](=O)[O-])ccc2Cl)CC1)c1cc([N+](=O)[O-])ccc1Cl 4.98%, Nc1ncnc2c1nc(Br)n2[C@H]1O[C@H]2COP(=O)(O)O[C@H]2[C@@H]1O 5.82%, Cc1ccc(Cn2nnc3c(=O)[nH]c(C4CCN(S(=O)(=O)c5ccccc5)CC4)nc32)cc1 -14%, Cc1ccc(S(=O)(=O)/N=C(\N)Nc2nc(C)c3cc(C)c(C)cc3n2)cc1 -14.1%, COc1ccc(-c2noc(CCC(=O)NCc3cccnc3)n2)cc1OC -5.77%, Cc1cc(C)n(CC(=O)N/N=C/c2cc([N+](=O)[O-])ccc2O)n1 -7.5%, COC(=O)c1cccc(NS(=O)(=O)c2ccc(OC)cc2)c1C -13.4%, O=C(O)CCCC[C@H]1SC[C@H]2NC(=O)N[C@@H]21 -6.94% [at 20.9 µM]
